The list shows a part of the results.
T1: UNK ZnF1-6 (called full-length) (human, UniProt Q9C0B0 30-357)
T1 sequence: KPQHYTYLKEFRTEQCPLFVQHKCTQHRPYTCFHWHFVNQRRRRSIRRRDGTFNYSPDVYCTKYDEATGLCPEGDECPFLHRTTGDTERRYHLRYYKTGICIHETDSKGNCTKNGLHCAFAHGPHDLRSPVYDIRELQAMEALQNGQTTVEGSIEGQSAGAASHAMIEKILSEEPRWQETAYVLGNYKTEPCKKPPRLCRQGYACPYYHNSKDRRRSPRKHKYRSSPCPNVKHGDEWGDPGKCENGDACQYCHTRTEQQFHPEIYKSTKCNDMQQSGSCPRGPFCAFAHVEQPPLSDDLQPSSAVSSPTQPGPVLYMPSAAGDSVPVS

B1: chr1:26281289:26281390:+|3pUTR|ENSG00000142669|msi1_unk|FALSE|overlapping (ssRNA)
RNA: GGGAGUUCUACAGUCCGACGAUCUCCCUCCUCUCUAAAUGUAGUCCCCUCUCCUCCAUCUAAAGGCAACAUUCCUUACCCAUUAGUCUCAGAAAUUGUCUUAAGCAACAGCCCCAAAUGCUGGCUGCCCCCAGCCAAGCAUUGCAACAGAGGAUUGAGCAUCA
B2: chr4:189940876:189940977:+|5pUTR|ENSG00000109536|unk|FALSE|unique (ssRNA)
RNA: GGGAGUUCUACAGUCCGACGAUCAGUGGAACUCUGAGCCAUUCAGCGUUUGGGUGAAGACGGAGGCGGGUUCUACAGAGACGUAGGCUGUCAGGGAGUGUUUAUUUCGCGUCCGCUUCUGUUUCUCCGCGCCCCUGUGCUGCCCAACAGAGGAUUGAGCAUCA
B3: ENSG00000184898:stop:overlap|stop_codon|ENSG00000184898|stop_codon|NA|stop_codon (ssRNA)
RNA: GGGAGUUCUACAGUCCGACGAUCGGCUGUUAGGGCUUAACUGUUGUCCUCCCACGCCUCGGGGGGAACAAAAGUGGCCUGAUUAGCCAGAAAUGGAGGUCACAGCUGCCUUUUGAAAAGGGCUAAUAAGAACGAUUCGAGCCACAACAGAGGAUUGAGCAUCA
B4: ENSG00000135956:stop:overlap|stop_codon|ENSG00000135956|stop_codon|NA|stop_codon (ssRNA)
RNA: GGGAGUUCUACAGUCCGACGAUCUGAAAGACAGUGCUGCUCCUGCGGGUCAUCGCCGCCUUCUGUUUCCUGGGCAUCCUGUGUAGUCUCUCCGCUUUCCUUCUGGAUGUCUUUGGGCCGAAGCAUCCUGCUCUGAAGAUCACUCAACAGAGGAUUGAGCAUCA
B5: chr19:48922626:48922741:+|3pUTR|ENSG00000104805|msi1|FALSE|unique (ssRNA)
RNA: GGGAGUUCUACAGUCCGACGAUCUCCUCCGAGGGGCUUGCCUUCUCUCGUGUCCAGUGAGGUGCUCAGUGAUCGGCUUAACUUAGAGAAGCCCGCCCCCUCCCCUUCUCCGUCUGUCCCAAGAGGGUCUGCUCUGAGCCUGCGCAACAGAGGAUUGAGCAUCA
B6: ENSG00000154380:stop:overlap|stop_codon|ENSG00000154380|stop_codon|NA|stop_codon (ssRNA)
RNA: GGGAGUUCUACAGUCCGACGAUCAGCUAAAAGAAGAGCUCAUUGAUGCAAUCAGGCAGGAACUGAGCAAGUCAAAUACUGCAUAGAGGAACAGACUAAGGAGAGAUAGGACUUUAAUCUGGAGGAAAAAUAUCCUACAAACAACAACAGAGGAUUGAGCAUCA
B7: chr3:128622278:128622381:-|CDS|ENSG00000163902|unk|FALSE|unique (ssRNA)
RNA: GGGAGUUCUACAGUCCGACGAUCAGCCAGGAUGAAGGUAGCCUGCAUCACAGAGCAGGUCUUGACCCUGGUCAACAAGAGAAUAGGCCUUUACCGUCACUUUGACGAGACCGUCAAUAGGUACAAGCAAUCCCGGGACAUCUCCAACAGAGGAUUGAGCAUCA
B8: chr8:80499649:80499757:+|CDS|ENSG00000205189|unk|FALSE|unique (ssRNA)
RNA: GGGAGUUCUACAGUCCGACGAUCUAAGACUUUAUAUUGCUUUUCAAACAAAGAAAGCCCUAACCAAAACAAUACUACCCACUUAGAUAUUGCUGCAGUUCAAGGUUUUUCAGUCAUCUUGGACUUCUUGUAUUCUGGUAACCUCAACAGAGGAUUGAGCAUCA
B9: chr8:96261867:96261970:+|5pUTR|ENSG00000156471|unk|FALSE|bound_elsewhere (ssRNA)
RNA: GGGAGUUCUACAGUCCGACGAUCUCCUUCCCUCUGCUCCCAGCCUUUGCUGGGCGCCAGACCCGGCUUUGCCGUCCGGCUAUUAGCCUACUGUGGCUAGUCACCCCCGGGGUCCCGGCCUUCUCGGGCUGGGGCCGCCGCCACCAACAGAGGAUUGAGCAUCA
B10: ENSG00000124766:be:win_1251|CDS|ENSG00000124766|bound_else_gene|NA|bound_elsewhere_windowed (ssRNA)
RNA: GGGAGUUCUACAGUCCGACGAUCGUCCCUGGGCAGCUUCAGUUCGUCGUCGGCGCUCGACCGGGACCUGGAUUUUAACUUCGAGCCCGGCUCCGGCUCGCACUUCGAGUUCCCGGACUACUGCACGCCCGAGGUGAGCGAGAUCAACAGAGGAUUGAGCAUCA
B11: chr2:200490383:200490484:-|CDS|ENSG00000155729|msi1|FALSE|unique (ssRNA)
RNA: GGGAGUUCUACAGUCCGACGAUCUCUCCAGCCAGUGCCAUCCAGACGUCGGCUGGGGCGACAGCAAACCGGUUUCAAAGUGGUAGCCGCAGAAAGGCAGCUCAGCGCUCUGCACCUUCCAGAGCCACGGCCCUGGUGGGCACGCAACAGAGGAUUGAGCAUCA
B12: chr10:62806226:62806343:+|3pUTR|ENSG00000181915|unk|total|mutant (ssRNA)
RNA: GGGAGUUCUACAGUCCGACGAUCCUACCCCUCCGUUAAACCGGGUUUAUUUUCCACUCAUGCCCUUAUGCCUUUUUUUCUUACCGUUUUUUAACUUAUUGACUGUGCAUGACCCAGUGGUUUGAAUUGUUUUCCGUUCAAGUCCAACAGAGGAUUGAGCAUCA
B13: ENSG00000107863:be:win_5451|CDS|ENSG00000107863|bound_else_gene|NA|bound_elsewhere_windowed (ssRNA)
RNA: GGGAGUUCUACAGUCCGACGAUCUUUUUGGAAAGUGCAUGAGCAGAGCGGGGAGAGAGAAUCUGAACUUUCAGCUGUAAACCGGUUAAAACCAAAAUGCUCAGCCCAGGACCUUUCCAUCUCAGACUGGCUGGCCAGGGAACGCAACAGAGGAUUGAGCAUCA
B14: chr2:159432892:159433005:-|CDS|ENSG00000123636|unk|FALSE|unique (ssRNA)
RNA: GGGAGUUCUACAGUCCGACGAUCACACCUGUAAUGCCCUCUGCCUCUCCCAUCCUGCAUAGUCAAGGGAAGGAAAAAGCAGUUAGCAAUAAUGUAAACCCAGUAAAAACACAGCAUCACUCCCAUCCUGCAAAAUCUUUAGUGCAACAGAGGAUUGAGCAUCA
B15: chr12:49323620:49323721:+|CDS|ENSG00000135451|unk|total|mutant (ssRNA)
RNA: GGGAGUUCUACAGUCCGACGAUCAUCAUGACCACCCGGCAAGCCACGAAGGAUCCCCUCCUCCGGGGUGUAUCUCCUACCCCCCGCAAGAUUCCGGUACGCUCUCAGAAACGCACGCCUUUCCCCACUGUUACAUCGUGCGCCCAACAGAGGAUUGAGCAUCA
B16: chr2:85649053:85649154:+|3pUTR|ENSG00000168883|unk|FALSE|unique (ssRNA)
RNA: GGGAGUUCUACAGUCCGACGAUCUUCAGCAGGGCAGAACCCUUCUCCAGAUGUGUGUAACUUAUGUCUUGAGUAUCUGGGAGUAGUUGAAGAACAGAUAAUUCCUUCCAAACAUCAAGCCUUGGGAUUCUUGGAGCAAGCAGACAACAGAGGAUUGAGCAUCA
B17: chr20:23564731:23564947:-|three_prime_utr|ENSG00000101435|control|control|control (ssRNA)
RNA: GGGAGUUCUACAGUCCGACGAUCAGCUUUGGACUUGUUUGUUAUCCUAUUUUGCAUGUGUUUGAGAUCUCAGAUCAGUGUUUUAGAAAAUCCACACAUCUUGAGCCUAAUCAUGUAGUGUAGAUCAUUAAACAUCAGCAUUUUCAACAGAGGAUUGAGCAUCA
B18: chr8:17299120:17299221:-|3pUTR|ENSG00000003987|unk|FALSE|unique (ssRNA)
RNA: GGGAGUUCUACAGUCCGACGAUCUCCUCAUUAUUUAAAAAUGCUAAACCUUGUAUCUCACUUUUUCUCUAACACUGAUUUAAUAGCUAACGAGGUAGAAGCAACAUUCAUUCUCCUGGUCUUACAUAUGAAUUUAAGUAUCAGCAACAGAGGAUUGAGCAUCA
B19: chr8:94832020:94832135:+|CDS|ENSG00000164941|unk|FALSE|unique (ssRNA)
RNA: GGGAGUUCUACAGUCCGACGAUCGGUACUAGAAGCAGCCCUAAAAUUAAACAAGGAUCUUUAUGUCCAUACGAUGAGAACUCUAGAUUUAUUGGCCAUGGAACCAGGCAUGGUAAAUGGAGAAACUGAGAGUUCUACUGCUGGCAACAGAGGAUUGAGCAUCA
B20: chr1:179108573:179108674:-|CDS|ENSG00000143322|unk|FALSE|bound_elsewhere (ssRNA)
RNA: GGGAGUUCUACAGUCCGACGAUCAGCCAAGUUAUUGCCCAGAGGAGCCACAGCUCUUCCUCUCAGAACACCCUCUGGGGAUCUAGCCAUUACAGAGAAGGACCCUCCAGGGGUGGGAGUGGCUGGAGUGGCAGCUGCCCCCAACAACAGAGGAUUGAGCAUCA
B21: chr2:25738620:25738721:-|3pUTR|ENSG00000143970|unk|total|mutant (ssRNA)
RNA: GGGAGUUCUACAGUCCGACGAUCAUACAUAUUAAUGACCUGACAGUUAACAUUCUGUUGUUUAUUAUUGCCUUUCUCCACCUCCGAGAGCCAUAAAUAACUCUCUGGUGAAGUGAUUUGCUAUAAUGGGGGUGAGGAGUGGGGCAACAGAGGAUUGAGCAUCA
B22: chr1:173887777:173887878:+|3pUTR|ENSG00000185278|unk|FALSE|unique (ssRNA)
RNA: GGGAGUUCUACAGUCCGACGAUCAAAGAGAUUUGGCAGAGGGACAGGUUGUACCUGCACUGGUGAACCAUCUGUGAGAAUGUUAGUCAUGUGCUCCUUUCCUGAGAUUGCUUUGUGGUAUGUGAAAAGGUGGGUAGAAAAGAACAACAGAGGAUUGAGCAUCA

Biological target: T1, UNK ZnF1-6 (called full-length)
Test: nsRBNS (natural sequence RNA bind-n-seq); RBNS binding buffer (assumed for nsRBNS): 25 mM Tris pH 7.5, 150 mM KCl, 3 mM MgCl2, 0.01% Triton X-100, 500 ug/ml BSA, 20 U/ml SUPERase-In, 4 C; UNK is unkempt and MSI1 is Musashi-1; names of the RNAs are library labels; protein concentration not given here; high values mean tight binding

Row | Binder | binding signal [enrichment R]
1 | B1 | 1.61
2 | B2 | 0.988
3 | B3 | 0.677
4 | B4 | 0.575
5 | B5 | 1.05
6 | B6 | 0.87
7 | B7 | 0.458
8 | B8 | 0.752
9 | B9 | 0.583
10 | B10 | 0.658
11 | B11 | 0.603
12 | B12 | 1.24
13 | B13 | 0.782
14 | B14 | 1.22
15 | B15 | 0.687
16 | B16 | 0.54
17 | B17 | 0.35
18 | B18 | 0.619
19 | B19 | 0.902
20 | B20 | 0.76
21 | B21 | 0.756
22 | B22 | 0.823
